{"source": "patent US20240383955A1", "about": "“MODIFIED ANTIMICROBIAL PEPTIDES” (priority 2021, published 2024)", "key": {"C. albicans": {"test_system": "C. albicans", "experiment": "Peptide or protein/Fluconazole combination, MIC and FICI", "conditions": "Full Length MtDef4 Protein/Fluconazole combination"}, "C. glabrata": {"test_system": "C. glabrata", "experiment": "Peptide or protein/Fluconazole combination, MIC and FICI", "conditions": "Full Length MtDef4 Protein/Fluconazole combination"}}}
{"compound": "OC(Cn1cncn1)(Cn1cncn1)c1ccc(F)cc1F", "note": "[Fluconazole, reference compound]", "values": [{"measurement": "MIC in combination", "setting": "C. albicans", "result": 2, "unit": "mg/L"}, {"measurement": "MIC in combination", "setting": "C. glabrata", "result": 64, "unit": "mg/L"}]}
